# Reference: publication PMC4336329 (PLoS ONE, 2015)
# Hit rate of the full screen: of about 310,000 compounds, about 14,000 (4.5%) showed an effect of 50% or more. Effects have a minus sign here. This is one part of the list.
# Target: human ether-à-go-go-related gene (hERG) potassium channel (human, UniProt Q12809)
# Assay: primary screen, population patch clamp on CHO cells stably expressing hERG
# 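Further: peak tail current of the secondary pulse compared with the same well before compound.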
# Chain of human ether-à-go-go-related gene (hERG) potassium channel (Q12809 whole entry, looked up): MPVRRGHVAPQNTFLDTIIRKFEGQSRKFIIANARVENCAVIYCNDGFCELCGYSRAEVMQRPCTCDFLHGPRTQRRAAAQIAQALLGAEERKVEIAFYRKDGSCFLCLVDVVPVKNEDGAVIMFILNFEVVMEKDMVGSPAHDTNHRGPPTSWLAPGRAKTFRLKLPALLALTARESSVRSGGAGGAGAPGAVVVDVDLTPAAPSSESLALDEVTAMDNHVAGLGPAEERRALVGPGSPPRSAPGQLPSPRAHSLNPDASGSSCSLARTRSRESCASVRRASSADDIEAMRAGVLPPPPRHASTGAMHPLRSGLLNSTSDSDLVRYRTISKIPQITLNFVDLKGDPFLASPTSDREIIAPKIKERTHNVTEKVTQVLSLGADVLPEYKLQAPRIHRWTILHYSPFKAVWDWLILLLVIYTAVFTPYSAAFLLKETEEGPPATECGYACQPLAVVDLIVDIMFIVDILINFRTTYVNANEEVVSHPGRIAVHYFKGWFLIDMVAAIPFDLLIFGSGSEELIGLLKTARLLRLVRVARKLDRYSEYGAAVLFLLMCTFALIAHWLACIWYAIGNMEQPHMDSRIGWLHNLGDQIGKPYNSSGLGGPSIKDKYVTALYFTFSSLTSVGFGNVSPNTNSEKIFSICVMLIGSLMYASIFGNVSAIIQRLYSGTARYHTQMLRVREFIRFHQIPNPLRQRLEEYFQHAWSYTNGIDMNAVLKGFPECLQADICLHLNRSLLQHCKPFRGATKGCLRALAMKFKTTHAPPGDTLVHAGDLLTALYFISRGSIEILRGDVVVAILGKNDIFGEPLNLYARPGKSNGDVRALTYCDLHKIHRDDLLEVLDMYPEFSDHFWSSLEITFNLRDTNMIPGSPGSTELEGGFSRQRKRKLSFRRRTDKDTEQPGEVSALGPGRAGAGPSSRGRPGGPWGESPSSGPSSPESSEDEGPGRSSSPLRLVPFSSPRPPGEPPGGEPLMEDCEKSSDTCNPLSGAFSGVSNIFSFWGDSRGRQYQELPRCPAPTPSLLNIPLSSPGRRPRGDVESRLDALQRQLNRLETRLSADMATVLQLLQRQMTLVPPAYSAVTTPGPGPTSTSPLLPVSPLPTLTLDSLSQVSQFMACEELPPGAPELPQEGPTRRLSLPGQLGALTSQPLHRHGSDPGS
row,SMILES,"hERG current change (%, negative = inhibition) at 10uM [%]"
1,Cc1cc(C)cc(-n2ccn(CC(=O)NCCc3ccccc3)c(=O)c2=O)c1,18.1
2,COc1ccc(CNC(=O)CSc2nnnn2-c2ccccc2)cc1,-38.6
3,N#Cc1cnc(NN)nc1,8.95
4,COC(=O)c1ccc(CSc2cc(C)c3ccccc3n2)o1,10.2
5,Clc1ccc(-c2nc3ncccn3c2Cl)cc1,17.1
6,O=C(c1cnn2c(C(F)F)cc(-c3ccccc3)nc12)N1CCCCC1c1cccnc1 (stereo not shown),-37.9
7,CC(NC(=S)NC1CCCCC1)c1ccccc1 (stereo not shown),13.7
8,O=C(OCC#CCSc1nnc(-c2cccc3ccccc23)o1)c1cccs1,5.12
9,CN(Cc1ccccc1)C(=O)N1CCOCC1,20.6
10,O=C(O)CC1SC(=O)N(Cc2ccccc2)C1=O (stereo not shown),21
11,COc1ccc(S(=O)(=O)N2CCC(C(=O)N3CCCCC3)CC2)cc1OC,-0.887
12,COc1ccc(-c2cn(-c3ccccc3)c3[n+]2CCS3)cc1,-38
13,CCN(CC)S(=O)(=O)c1ccc(NC2CCCc3ccccc32)nc1 (stereo not shown),10.6
14,COCCOC(=O)C1=C(N)OC(C)=C(C(=O)OC)C12C(=O)Nc1ccccc12 (stereo not shown),5.95
15,COc1ccc(-c2nc3c(c4nnc(SC(C)C(=O)Nc5ccc(C)cc5)n24)COC(C)(C)C3)cc1 (stereo not shown),20.7
16,Cc1ccc(C)c(OCCSc2nnc(C)c(=O)[nH]2)c1,44.7
17,CC1CCCCN1c1nc(-c2ccncc2)nc2ccccc12 (stereo not shown),-12.8
18,CC(=O)N1CCc2cc(S(=O)(=O)NCCC(=O)NCCc3ccccc3)ccc21,17.2
19,Cc1cccc(NC(=O)c2ccc3nccnc3c2)c1C,18
20,COC(=O)c1cccc(OCC(O)Cn2cnc3cc(C)c(C)cc32)c1 (stereo not shown),-9.48
21,COc1cc(C(=O)OCC(=O)c2cc(C)n(C)c2C)cc(OC)c1OC,-1.54
22,COc1cc(C(F)(F)F)c(C(=O)NCc2cccc(Cl)c2)cn1,7.88
23,CCOC(=O)c1nnn(-c2nonc2-c2ccccc2)c1C,-25.2

row,SMILES,"hERG current change (%, negative = inhibition) at 10uM [%]"
1,CC(C)C1CC(c2ccccc2)(C(CN)CO)CCO1.O=C(O)C(=O)O (stereo not shown),23
2,C/C(CC(=O)Nc1cc(C)ccn1)=N\NC(=O)c1ccccc1C,-1.76
3,COc1ccc(NC(=O)C(CC(=O)O)Cc2ccc(Br)cc2)cc1 (stereo not shown),11.9
4,O=C(CC(SCc1ccco1)c1ccc(O)cc1)c1cccs1 (stereo not shown),-15
5,CC1CC(C)CN(CCCNC(=O)CN2C(=O)COc3ccc(S(=O)(=O)N4CCOCC4)cc32)C1 (stereo not shown),15.8
6,COc1ccc(C(=O)NNC(=O)OC(C)(C)C)cc1,17.2
7,CCOn1c(=O)c(=O)n(OC)c2ccccc21,-6.73
8,Cc1cc2c(=O)n(Cc3ccco3)c(SCC(=O)NCc3ccco3)nc2s1,-35.8
9,CC(=O)N1CCC(=NNc2ccnc3cc(Cl)ccc23)CC1,-22.2
10,CC1CCc2nn(CC(=O)NC3CCCC3)cc2C1 (stereo not shown),1.3
11,Nc1nnc(SCC(=O)NCC(=O)Nc2ccc(F)c(F)c2F)s1,11.8
12,CCCC(C1=C(O)CC(C)(C)CC1=O)C1C(=O)CC(C)(C)CC1=O (stereo not shown),10.2
13,O=C(NC1CCC(=O)N(CCOc2ccccc2)CC1)OCc1ccccc1 (stereo not shown),-30.2
14,CCOc1ccc2nc(SCc3ccc(F)cc3)sc2c1,1.39
15,CC(=O)c1c(C(C)=O)c(C)n(-c2ccc(C(=O)O)cc2)c1C,10.7
16,CCN(CC)S(=O)(=O)c1cc([N+](=O)[O-])ccc1NNC(=O)Nc1ccccc1,1.68
17,CCCCNC(=O)NCc1cnn(C)c1C,-1.98
18,COc1ccc(C(CC(=O)NC(C)(C)C)n2cccc2)cc1 (stereo not shown),14.7
19,COCCCNc1nc(-c2ccncc2)nc2ccccc12,-15.5
20,CCOc1ccc(N2CC(C(=O)Nc3ccc(S(=O)(=O)Nc4ncccn4)cc3)CC2=O)cc1 (stereo not shown),2.55
21,CSc1nc(O)c(C(c2ccccc2Cl)c2c(O)nc(SC)[nH]c2=O)c(=O)[nH]1,-1.16
22,COc1ccc(-c2ncncc2-c2csc(C)n2)c(O)c1,-7.79
23,Cc1ccccc1-c1noc(-c2cccs2)n1,6.88

row,SMILES,"hERG current change (%, negative = inhibition) at 10uM [%]"
1,Cc1nc2ccc(S(=O)(=O)Nc3ccccc3C)cc2s1,-11.2
2,O=C(CSCC(=O)c1ccccc1)Nc1ccccc1Cl,4.19
3,Cc1cc(=O)[nH]c(SCC(=O)N2CCc3ccccc3C2)n1,-8.82
4,Cl.O=C(C1CCN(S(=O)(=O)c2cccs2)CC1)N1CCN(Cc2ccccc2)CC1,3.79
5,CC(C)Oc1ccc(S(=O)(=O)N2CCOCC2)cc1NC(=O)C1COc2ccccc2O1 (stereo not shown),-27.7
6,Cc1ccc(NC2CCCN(C(=O)c3ccnc(Cl)c3)C2)cc1C (stereo not shown),-4.39
7,Cc1cccc2cc(/C=N/NC(=O)[C@H]3C[C@@H]3c3ccccc3)c(Cl)nc12,13.8
8,COc1ccc(CCNC(=O)Cc2ccc(OC)c(OC)c2)cc1OC,-4.93
9,Cc1cccc(N2CCN(C(=O)c3ccc4c(c3)NC(=O)C(CSCc3ccc(F)cc3)N4)CC2C)c1 (stereo not shown),-3.32
10,CCOc1ccccc1NC(=O)C(NCC1CCCCC1)c1ccccc1 (stereo not shown),16.9
11,CC(=O)c1ccc(NC(=O)CN2CCN(c3ncccn3)CC2)cc1.O=C(O)C(=O)O,-27.8
12,CN(Cc1ccccc1)C(=O)COC(=O)Cn1cnc2ccccc21,25.5
13,O=C(NCCS(=O)(=O)N1CCN(c2ccccc2F)CC1)C1CC(=O)N(c2ccc(F)cc2)C1 (stereo not shown),10.6
14,COc1cccc(-c2nc(CS(=O)(=O)CC(=O)NCCCN3CCOCC3)c(C)o2)c1,7.17
15,Cc1ccc(S(=O)(=O)NNC(=O)c2ccc3ccccc3n2)cc1,3.47
16,CS(=O)(=O)c1ccc(NC(=O)CCN2C(=O)NC3(CCCC3)C2=O)cc1,9.37
17,c1ccc(COc2ccc(CN3CCN(c4ccccn4)CC3)cc2)cc1,-23
18,CCOc1ccc(C(=O)O/N=C(\N)c2ccccn2)cc1OCC,-8.85
19,C/C(=N\NC(=O)c1ccc([N+](=O)[O-])cc1Cl)c1ccccc1,12.2
20,COc1ccc(Cn2c(C)nnc2-c2cnn(C)c2N)cc1OC,7.41
21,O=C(CSc1nnnn1C1CC1)Nc1cccc(S(=O)(=O)N2CCCC2)c1,-11.7
22,CCn1cc(C(=O)N2CCCc3ccccc32)c2cc(OC)c(OC)cc2c1=O,-2.25
23,Cc1csc(NC(=O)c2cc(C)on2)n1,10.6

row,SMILES,"hERG current change (%, negative = inhibition) at 10uM [%]"
1,CCC(=O)Nc1cccc(-c2nnc(-c3ccccc3)o2)c1,-4.36
2,c1ccc(CNc2nc3ccccc3[nH]2)cc1,-10.6
3,O=C(Cn1c(CO)nc2ccccc21)Nc1ccc2c(c1)OCCCO2,-6.55
4,O=C(Nc1ccccc1)C1COc2ccccc2O1 (stereo not shown),3.19
5,COc1ccc(-n2nc(C(=O)NCC(=O)Nc3cc(OC)c(OC)c(OC)c3)c3ccccc3c2=O)cc1,12.4
6,COc1ccc(N2CC(NS(=O)(=O)c3ccc4ccccc4c3)CC2=O)cc1OC (stereo not shown),-13.2
7,Cc1cc(Nc2cc(C(=O)O)ccc2C)n2ncnc2n1,-5.65
8,COc1ccccc1-n1c(SCC(=O)OC(C)C)nc2cccnc21,13.3
9,Nc1nc2ccc(Cc3ccncc3)cc2s1,13.7
10,CCn1c(COc2ccc(Cl)cc2)nnc1SCc1ccc(C#N)cc1,-70.5
11,N/C(=N/O)c1cccn1Cc1ccccc1[N+](=O)[O-],22.9
12,O=C(Cn1ccc2ccccc2c1=O)NCCC(=O)Nc1cccnc1,13.2
13,CCCCNC(=O)C1CCC(CNS(=O)(=O)c2ccc(NC(C)=O)cc2)CC1 (stereo not shown),6.5
14,Cc1c(C(=O)NCc2cccnc2)oc2ccccc12,-10.6
15,CCC(C)N(C(=O)COC(=O)/C=C/c1ccc(O)c(OC)c1)C1CCS(=O)(=O)C1 (stereo not shown),10.7
16,COc1cc(OC)cc(C(=O)N[C@H](C(=O)NCCc2ccc(S(N)(=O)=O)cc2)C(C)C)c1,7.81
17,Cc1ccc(NC(=O)c2cc([N+](=O)[O-])ccc2N2CCOCC2)cc1C,-42.3
18,CCOc1ccccc1NC(=O)CSc1nnc(-c2ccco2)o1,-12
19,CC(=O)N1N=C(c2cccc(O)c2)CC1c1cccs1 (stereo not shown),17.3
20,COc1ccccc1N1CCN(C(=O)C2CC2)CC1,20
21,COc1ccc(S(=O)(=O)CCC(=O)NCc2ccc(C)o2)cc1,4
22,O=C(CSc1nnc(-c2cccnc2)n1CCc1ccccc1)N1CCCCC1,-0.213
